Test results: the antibiotic and cytotoxicity screens of Wong et al. (2023)
The list shows a part of the results.

The molecules below were run on S. aureus RN4220 (assay: growth inhibition call (relative growth <= 0.2)). Settings: 50 µM.

Structure (SMILES)	growth inhibition call
C[C@H](CO)N1C[C@H](C)[C@@H](CN(C)CC2CCCCC2)Oc2ccc(NC(=O)CCN3CCOCC3)cc2C1=O	inactive
COc1ccc(S(=O)(=O)Nc2ccc3c(c2)C(=O)N([C@@H](C)CO)C[C@H](C)[C@H](CN(C)C(=O)Nc2c(C)noc2C)O3)cc1	inactive
Cl.OC(c1cc(C(F)(F)F)nc2c(C(F)(F)F)cccc12)C1CCCCN1 (stereo not given)	inactive
COC(=O)/C=C/c1cn([C@H]2OC[C@@H](CO)[C@@H]2O)c(=O)[nH]c1=O	inactive
C[C@@H]1CN([C@@H](C)CO)S(=O)(=O)c2ccc(C#Cc3ccncc3)cc2O[C@@H]1CN(C)C(=O)Nc1ccc2c(c1)OCO2	inactive
CC(C)C#Cc1ccc2c(c1)O[C@@H](CN(C)C(=O)Cc1ccccn1)[C@H](C)CN([C@@H](C)CO)S2(=O)=O	inactive
CC(=O)N1CCN(CC(N)=S)CC1	inactive
C[C@@H]1CCCCO[C@H](CN(C)C(=O)c2ccccc2)[C@H](C)CN([C@@H](C)CO)C(=O)c2cc(NS(=O)(=O)c3ccc(Cl)cc3)ccc2O1	inactive
C[C@@H]1CCCCO[C@@H](CN(C)Cc2ccc(C(=O)O)cc2)[C@H](C)CN([C@@H](C)CO)C(=O)c2cc(NC(=O)Nc3ccc(F)cc3)ccc2O1	inactive
Cc1noc(C)c1S(=O)(=O)Nc1ccc2c(c1)C(=O)N([C@@H](C)CO)C[C@@H](C)[C@@H](CN(C)Cc1ccc(C(=O)O)cc1)O2	inactive
COc1ccccc1-c1ccc2c(c1)O[C@H](CN(C)CC1CCOCC1)[C@H](C)CN([C@H](C)CO)S2(=O)=O	inactive
COCCNC(=O)C[C@H]1CC[C@@H]2[C@H](COc3ccc(NS(=O)(=O)c4ccc(Cl)cc4)cc3C(=O)N2C)O1	inactive
C[C@@H]1CN([C@H](C)CO)C(=O)Cc2cc(NC(=O)c3ccncc3)ccc2O[C@@H]1CN(C)S(=O)(=O)c1cccs1	inactive
C[C@@H]1CN([C@@H](C)CO)C(=O)c2c(c3ccccc3n2C)-c2ccccc2CO[C@@H]1CN(C)C(=O)Nc1ccc2c(c1)OCO2	inactive
C[C@@H](N)c1nc2c(s1)CCCC2	inactive
O=c1n(C[C@H]2CO2)c(=O)n(C[C@H]2CO2)c(=O)n1C[C@H]1CO1	inactive
COc1ccccc1OC[C@@H](O)COC(N)=O	inactive
O=C(C[C@@H]1CC[C@@H](NC(=O)c2cccnc2)[C@@H](CO)O1)NCCN1CCCCC1	inactive
C[C@@H]1CCCCO[C@H](CN(C)Cc2ccc3c(c2)OCO3)[C@H](C)CN([C@@H](C)CO)C(=O)c2cc(NS(=O)(=O)c3ccc(Cl)cc3)ccc2O1	inactive
C[C@H]1CN([C@@H](C)CO)C(=O)c2cc(NC(=O)NC3CCCCC3)ccc2O[C@@H]1CN(C)Cc1ccc(-c2ccccc2)cc1	inactive

Structure (SMILES)	growth inhibition call
C[C@H]1CN([C@@H](C)CO)S(=O)(=O)c2ccc(C#CCC3CCCC3)cc2O[C@H]1CN(C)C(=O)CN(C)C	inactive
C[C@H]1CCCCO[C@@H](CN(C)C(=O)c2ccccc2)[C@@H](C)CN([C@@H](C)CO)C(=O)c2cc(NC(=O)c3ccccc3)ccc2O1	inactive
C[C@H](CO)N1C[C@H](C)[C@@H](CN(C)S(=O)(=O)c2ccc(Cl)cc2)OCCCC[C@H](C)Oc2ccc(NC(=O)Nc3cccc4ccccc34)cc2C1=O	inactive
O=C(C[C@@H]1C=C[C@H](NC(=O)c2cnccn2)[C@H](CO)O1)NCc1ccccc1F	inactive
C[C@@H]1CCCCO[C@H](CN(C)C(=O)c2ccncc2)[C@@H](C)CN([C@H](C)CO)C(=O)c2cc(NC(=O)NC3CCCCC3)ccc2O1	inactive
Cc1ccc(S(=O)(=O)Nc2cccc3c2O[C@@H](CN(C)Cc2ccc(Cl)c(Cl)c2)[C@@H](C)CN([C@H](C)CO)C3=O)cc1	inactive
C[C@H](O)[C@H](O)[C@@H](O)[C@@H](O)/C=N/NC(=O)c1ccccn1	inactive
COc1ccc(S(=O)(=O)N(C)C[C@@H]2OCCCC[C@@H](C)Oc3ccc(NC(=O)Nc4cccc5ccccc45)cc3C(=O)N([C@H](C)CO)C[C@@H]2C)cc1	inactive
Cn1cnc(S(=O)(=O)N[C@@H]2C=C[C@@H](CC(=O)Nc3ccccc3)O[C@H]2CO)c1	inactive
C[C@@H]1CN([C@H](C)CO)C(=O)c2cc(-c3cccc(C(=O)N(C)C)c3)cnc2O[C@@H]1CN(C)S(=O)(=O)c1ccc(F)cc1	inactive
COc1ccc(S(=O)(=O)Nc2ccc3c(c2)C(=O)N([C@H](C)CO)C[C@@H](C)[C@@H](CN(C)Cc2ccc4c(c2)OCO4)OCCCC[C@H](C)O3)cc1	inactive
C[C@H]1CN([C@@H](C)CO)C(=O)c2cc(-c3cccc(C#N)c3)cnc2O[C@H]1CN(C)C(=O)c1cnccn1	inactive
CCS(=O)(=O)N1[C@@H](CO)[C@H](c2ccccc2)C12CN(C(=O)CN(C)C)C2	inactive
COc1ccc(NC(=O)N(C)C[C@@H]2OCCCC[C@H](C)Oc3ccc(NC(=O)C4CCCCC4)cc3C(=O)N([C@@H](C)CO)C[C@H]2C)cc1	inactive
O=C(N[C@H]1C=C[C@@H](CC(=O)N2CCOCC2)O[C@@H]1CO)c1ccc2c(c1)OCO2	inactive
C/C=C/c1ccc2c(c1)O[C@@H](CN(C)S(=O)(=O)c1ccc(C)cc1)[C@@H](C)CN([C@H](C)CO)S2(=O)=O	inactive
C[C@H]1CN([C@@H](C)CO)C(=O)c2cccc(NC(=O)Nc3ccccc3)c2O[C@H]1CN(C)Cc1ccc(C(F)(F)F)cc1	inactive
C[C@@H]1CN([C@@H](C)CO)C(=O)c2cccc(NC(=O)c3ccncc3)c2O[C@H]1CN(C)S(=O)(=O)c1ccccc1	inactive
COc1ccc(NC(=O)N(C)C[C@H]2OCCCC[C@H](C)Oc3ccc(NC(=O)c4ccccc4)cc3C(=O)N([C@@H](C)CO)C[C@H]2C)cc1	inactive
COC(=O)CCCCCCC(=O)Nc1ccc(NC(=O)CCCC[P+](c2ccccc2)(c2ccccc2)c2ccccc2)cc1	active
